Source: PubChem BioAssay (NCATS)
The inconclusive results got no clear call from the source; some entries with a clear call stand among them for comparison. Where the call is inconclusive, the potency comes from a doubtful curve fit. Active and inactive are the calls of the source. The call rests on the fitted dose curve; in most records, active means well fitted inhibition curve with a large enough effect; inconclusive means small, poorly fitted or top-dose-only effect, or another doubt; inactive means no such curve, though single readings can be large or run the other way.

These compounds were tested against DNA polymerase kappa (Homo sapiens) (UniProt Q9UBT6) (assay: qHTS for Inhibitors of Polymerase Kappa: Confirmatory Assay for Cherry-picked Compounds (AID 720501)). Details: purified Pol-kappa, fluorescent strand-displacement substrate.
UniProt Q9UBT6, sequence (Q9UBT6 whole entry, looked up): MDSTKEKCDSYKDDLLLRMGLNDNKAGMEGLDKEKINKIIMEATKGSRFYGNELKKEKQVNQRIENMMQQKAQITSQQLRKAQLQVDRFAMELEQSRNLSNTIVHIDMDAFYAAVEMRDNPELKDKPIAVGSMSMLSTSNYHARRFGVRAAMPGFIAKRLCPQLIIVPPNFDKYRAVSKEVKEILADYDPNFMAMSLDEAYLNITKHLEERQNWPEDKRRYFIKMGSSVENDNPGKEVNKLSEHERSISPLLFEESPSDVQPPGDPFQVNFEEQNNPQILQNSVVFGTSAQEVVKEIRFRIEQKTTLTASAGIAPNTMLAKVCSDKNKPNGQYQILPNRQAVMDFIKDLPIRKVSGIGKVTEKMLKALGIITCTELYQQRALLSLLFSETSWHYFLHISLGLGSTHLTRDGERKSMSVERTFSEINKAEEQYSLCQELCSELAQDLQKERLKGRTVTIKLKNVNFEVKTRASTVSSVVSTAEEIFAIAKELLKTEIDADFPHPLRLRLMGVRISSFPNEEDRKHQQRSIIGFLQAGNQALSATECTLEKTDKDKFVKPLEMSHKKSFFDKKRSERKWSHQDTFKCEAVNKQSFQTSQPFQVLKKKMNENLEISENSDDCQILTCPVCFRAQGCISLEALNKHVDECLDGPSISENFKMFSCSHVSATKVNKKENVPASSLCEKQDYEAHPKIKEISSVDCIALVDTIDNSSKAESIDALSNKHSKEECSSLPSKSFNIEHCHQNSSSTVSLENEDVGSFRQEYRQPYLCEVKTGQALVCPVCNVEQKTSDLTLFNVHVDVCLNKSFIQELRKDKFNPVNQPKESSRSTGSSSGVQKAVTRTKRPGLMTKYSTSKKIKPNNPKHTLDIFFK
Procedure, shortened: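 10 nM human Pol-kappa was preincubated with compound 15 min at room temperature, then 50 nM (final) primer/template substrate with TAMRA-labeled reporter strand and BHQ-2-labeled template added. Fluorescence (Ex 525, Em 598 nm) read at 0 and 10 min.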
Potency means the concentration at half of the fitted maximal effect; tags describe the fitted curve by direction and shape.

Potency, inconclusive:
CC(=O)Nc1ccc(C=NNc2ccc([N+](=O)[O-])cc2S(=O)(=O)Nc2ccccc2C(=O)O)cc1 84.4 µM [inhibitor, single point]
OCCCNc1c2ccccc2nc2ccccc12 33.6 µM [inhibitor, partial curve]
CCN(CCCNc1cc2c(c(N)c1S(=O)(=O)O)C(=O)c1ccccc1C2=O)c1ccccc1 94.7 µM [inhibitor, single point]
O=C(N/N=C/c1ccncc1)c1cccc(NC(=O)c2ccc(Cl)cc2)c1 84.4 µM [inhibitor, partial curve]
Cc1ccc(C2C=C(c3ccccc3)Nc3nc(NS(=O)(=O)c4ccc(C)cc4)nn32)cc1 (stereo not given) 75.2 µM [inhibitor, partial curve, poor fit]
CC(C)(C)c1nnc2sc(SCC(O)=C(C#N)c3nc4ccccc4[nH]3)nn2c1=O 75.2 µM [inhibitor, partial curve]
CCc1ccc(NS(=O)(=O)c2ccc3[nH]cc(C(=O)NC4CCCC4)c(=O)c3c2)cc1 37.7 µM [inhibitor, partial curve]
CC1(C)CC[C@]2(C(=O)O)CC[C@]3(C)C(=CC[C@@H]4[C@@]5(C)CC[C@H](O[C@@H]6O[C@H](C(=O)O)[C@@H](O)[C@H](O[C@@H]7OC[C@H](O)[C@H](O)[C@H]7O)[C@H]6O)C(C)(C)[C@@H]5CC[C@]43C)[C@@H]2C1 42.3 µM [inhibitor, partial curve]
CCOc1cc(-c2ccc3c(c2)OCO3)cc(=[O+]CC)c2c(C)oc(C)c12 18.9 µM [inhibitor, full curve, poor fit]
O=C(O)COc1ccccc1C=NNc1ccc([N+](=O)[O-])cc1S(=O)(=O)Nc1ccc(Cl)cc1 21.2 µM [inhibitor, full curve, poor fit]
Cc1ccc(Cl)cc1N1CCN(C(=O)CN(c2ccccc2)S(=O)(=O)N(C)C)CC1 67 µM [inhibitor, partial curve]
Cc1cc(C)cc(-n2nnc(-c3nsc(NC(=O)c4ccccc4Cl)n3)c2C)c1 42.3 µM [inhibitor, partial curve]
COc1ccc(-c2cn3c(n2)sc2cc(C(=O)NCCCN4CCCCCC4)ccc23)cc1 11.9 µM [inhibitor, full curve]
O=C(NCc1cccc(CNC(=O)C(=O)NCc2ccco2)c1)C(=O)NCc1ccco1 75.2 µM [inhibitor, single point]
Cc1ccc(N2NC(=O)/C(=C/c3ccc(-c4ccc(Cl)c(C(=O)O)c4)o3)C2=O)cc1C 67 µM [inhibitor, partial curve]
O=C1C=CC(=O)N1CCCCCCCCCCN1C(=O)C=CC1=O 42.3 µM [inhibitor, full curve]
CC(C)CC(NC(=O)/C(=C/c1ccco1)NC(=O)c1ccc(Br)o1)C(=O)O (stereo not given) 33.6 µM [inhibitor, full curve]
O=C(NC1CCCCC1)c1sc(=S)n2c1[nH]c(=O)c1ccccc12 21.2 µM [inhibitor, full curve]
O=C(O)CCc1ccc(S(=O)(=O)Nc2cc(C(F)(F)F)ccc2N2CCCC2)cc1 59.7 µM [inhibitor, partial curve]

Potency, active:
CCC(=O)N1CCc2cc(Br)cc(S(=O)(=O)CCC(=O)NCCc3ccccc3Cl)c21 33.6 µM
C#Cc1ccc([C@@H]2C=C(C(=O)O)O[C@H](OCC)[C@H]2CCCO)cc1 4.74 µM
CN(C)CCCNc1c2ccccc2nc2ccccc12 9.47 µM
CCOC(=O)Cc1csc(NC(=O)NC2(C(F)(F)F)Oc3cc(Cl)c(Cl)cc3O2)n1 10.6 µM
S=c1[nH]nc(-c2cc(-c3ccccc3)n[nH]2)n1/N=C/C(Br)=C/c1ccccc1 67 µM
CC(=O)Oc1cc(C(=O)OCC(=O)NC23CC4CC(CC(C4)C2)C3)cc(OC(C)=O)c1OC(C)=O 8.44 µM
COC1=C(N)C(=O)c2nc(C)ccc2C1=O 18.9 µM
Cc1cc(NC(=O)CSc2nc3c(c(-c4cccnc4)c2C#N)CCC3)no1 37.7 µM
CCCCCCCCCCCCCCCCCCNc1ccn(C2OC(COP(=O)(O)OCC3OC(n4cc(F)c(=O)[nH]c4=O)CC3O)C(O)C2O)c(=O)n1 (stereo not given) 26.7 µM
O=C1/C(=C\c2ccc(O)c(O)c2)C(c2ccccc2)=NN1c1ccccc1 18.9 µM
O=C(O)C1Oc2cc3ccccc3cc2O1 8.44 µM
